Measurements published in patent US7432344 (IMPERIAL COLLEGE INNOVATIONS, dated 2008).

Biological target: T1, human B7-1 expressed on transfected human fibroblasts (human, UniProt P33681 35-288)
T1 construct: whole, on cells; also called CD80
T1 sequence (looked up): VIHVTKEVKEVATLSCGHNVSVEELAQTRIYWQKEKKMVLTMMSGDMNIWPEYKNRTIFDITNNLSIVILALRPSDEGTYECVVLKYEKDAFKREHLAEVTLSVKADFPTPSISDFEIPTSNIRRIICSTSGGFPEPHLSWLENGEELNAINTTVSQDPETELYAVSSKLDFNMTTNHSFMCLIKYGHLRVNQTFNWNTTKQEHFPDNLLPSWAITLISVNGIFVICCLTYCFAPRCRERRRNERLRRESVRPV
Test: flow cytometry on human fibroblasts transfected with human B7-1
Source text: The binding characteristics of pCTLA4-Ig were compared to those of human CTLA4-Ig using flow cytometric analysis with human fibroblasts transfected with either human B7-1 or porcine B7-2. For these experiments, the concentration of pig and human CTLA4-Ig were equivalent as assessed by ELISA.

B1: pCTLA4-Ig (extracellular domain of porcine CTLA-4 fused through the linker GGSGGAA to hinge, CH2 and CH3 of human IgG1) (Fc fusion)
chain: KGMHVAQPAVVLANSRGVASFVCEYGSAGKAAEVRVTVLRRAGSQMTEVCAATYTVEDELTFLDDSTCTGTSTENKVNLTIQGLRAVDTGLYICKVELLYPPPYYVGMGNGTQIYVIDPEPCPDSDGGSGGAA[letters of human IgG1 Fc left out]
notes: It may still carry the signal peptide, because the 5' primer starts at the ATG; Expressed in DAP.3 or CHO-K1 cells and purified on protein G; also called porcine CTLA4-Ig; soluble pCTLA4-Ig
**Q.** Does B1 bind?
**A.** no binding
